Experimental data published in the supplement of paper PMC6206098.
± gives the uncertainty stated by the source. The sequences are guide strands of siRNAs; only the seed at positions 2 to 7 varies.

What was measured:
3LL = test: cell viability relative to siNT1 control; higher = less toxic; conditions: concentration: 10 nM; 96 h; Mus musculus;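 also: Luminescence-based viability of cells reverse transfected in 384-well plates with lipid-complexed siRNAs built on a non-toxic 19mer backbone whose passenger strand carries 2′-O-methyl groups at positions 1 and 2, triplicates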
Protocol: (§1)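 Arrayed screen of 4096 siRNA duplexes, each carrying one of all possible 6mer seeds at guide-strand positions 2-7 in a fixed neutral 19mer scaffold (constant flanks: U at position 1, then ACAUGUAAACCA, plus a 3' AA overhang). The passenger strand is 2'-O-methylated at positions 1-2 so only the guide strand loads into RISC. Duplexes were reverse-transfected at 10 nM with RNAiMAX in triplicate in 384-well plates; viability was read by CellTiter-Glo ATP content 96 h after transfection. Values are % viability normalised to lipid-only wells (HeyA8, H460, M565) or to siNT1 (3LL).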

H460 = test: cell viability relative to lipid-only control; HeyA8 human ovarian and H460 human lung cancer; M565 mouse liver and 3LL mouse lung cancer; siNT1 is a non-toxic control siRNA; higher = less toxic; conditions: concentration: 10 nM; 96 h; Homo sapiens
Protocol: as §1

HeyA8 = test: as above; conditions: concentration: 10 nM; 96 h; Homo sapiens
Protocol: as §1

M565 = test: as above; conditions: concentration: 10 nM; 96 h; Mus musculus
Protocol: as §1
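For cell viability relative to lipid-only control in this document: reverse lipid transfection in 384-well plates, in triplicate, of duplexes on a non-toxic 19mer backbone with passenger strand 2′-O-methylated at positions 1 and 2, luminescence viability read-out.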

Sequence	cell viability (3LL) [%]	cell viability (H460) [%]	cell viability (HeyA8) [%]	cell viability (M565) [%]
UAGAGGAACAUGUAAACCAAA	85.7 ± 9.2	80.8 ± 19	69.4 ± 5.6	36.9 ± 3.7
UGGAGUAACAUGUAAACCAAA	105 ± 17	63.7 ± 8.3	81.8 ± 6	59.1 ± 9.1
UUCGAUCACAUGUAAACCAAA	92.7 ± 14	70.5 ± 4.3	92.3 ± 9.9	65.1 ± 17
UAGGGAAACAUGUAAACCAAA	86 ± 14	100 ± 11	88.3 ± 13	60.7 ± 11
UGACAAAACAUGUAAACCAAA	92.2 ± 16	67.6 ± 17	102 ± 1.9	74.8 ± 23
UAAAGCGACAUGUAAACCAAA	102 ± 7.8	76 ± 13	100 ± 2.6	80.8 ± 5
UCAUUUUACAUGUAAACCAAA	77 ± 5.8	32.4 ± 2	29.1 ± 1.1	56.9 ± 9.8
UCAGCAAACAUGUAAACCAAA	95.1 ± 12	63.4 ± 3.6	86.2 ± 5.4	70.7 ± 12
UCUUUGAACAUGUAAACCAAA	91.1 ± 15	79.5 ± 7.5	80.8 ± 8.1	76.2 ± 14
UGCGGGUACAUGUAAACCAAA	47.9 ± 8.5	21.8 ± 0.91	3.18 ± 0.085	21.5 ± 1.1
UGUAAGGACAUGUAAACCAAA	87.3 ± 2.9	46.9 ± 2.7	46.7 ± 3.3	43.1 ± 4.5
UAGCGGAACAUGUAAACCAAA	81.1 ± 6.1	65.5 ± 4.5	43.4 ± 7.8	28.1 ± 1.4
UACCAGUACAUGUAAACCAAA	51 ± 9	56.5 ± 4.1	10.5 ± 2.6	13.9 ± 2
UAGCUGAACAUGUAAACCAAA	57.3 ± 11	79.8 ± 22	64.5 ± 7.7	58.9 ± 5.2
UCAUCAAACAUGUAAACCAAA	82.3 ± 18	60.6 ± 7.8	42.9 ± 4.4	55.4 ± 9.3
UCGACCCACAUGUAAACCAAA	54.7 ± 8.3	77.4 ± 15	69.2 ± 2.4	73.9 ± 2.9
UUGCUAUACAUGUAAACCAAA	35.2 ± 3.3	44.6 ± 2	68.4 ± 3.6	77.2 ± 12
UAUUAAGACAUGUAAACCAAA	113 ± 16	98.3 ± 7.2	101 ± 13	94.7 ± 20
UAUACUGACAUGUAAACCAAA	107 ± 12	79.8 ± 12	104 ± 3.6	104 ± 5.7
UAUUCAGACAUGUAAACCAAA	111 ± 14	67.5 ± 3.7	92.5 ± 14	105 ± 3.7
UUGAUACACAUGUAAACCAAA	81.2 ± 3.2	55.6 ± 2.7	76.8 ± 1.4	61.7 ± 6.9
UCUUUCAACAUGUAAACCAAA	90.2 ± 16	62.2 ± 4.2	85 ± 11	81.9 ± 10
UACUCACACAUGUAAACCAAA	85.7 ± 12	82.3 ± 13	66 ± 3.3	32.3 ± 2.8
UGAUGUGACAUGUAAACCAAA	83.2 ± 11	71.9 ± 18	57.7 ± 5.1	59.7 ± 6.3
UUGUUAGACAUGUAAACCAAA	9.9 ± 2.9	68.4 ± 8.1	58.7 ± 2.9	54.9 ± 8.3
UCACAUUACAUGUAAACCAAA	91.8 ± 16	26.7 ± 1.4	78.2 ± 1	83.1 ± 16
UACGCCGACAUGUAAACCAAA	79.3 ± 4.7	107 ± 8.8	86.7 ± 9.5	71.5 ± 9.6
UCCUGAAACAUGUAAACCAAA	94.1 ± 16	94.6 ± 6.9	84.7 ± 2.1	86.1 ± 13
